# PubChem BioAssay (EPA / NIEHS)
# Results filed as inconclusive are left out. How the source made its calls: active means hit-call score of the fitted dose curve at least 0.9, where 1 is the maximum; inconclusive means response in the unintended direction; inactive means score below 0.9. Not every entry of the source has a single result; some have several. This list holds those alone. There may be further records. The records of an entry are repeated measurements in other runs, samples, wells, individuals or studies. Some structures have more than one record in an assay (separate samples or runs), and their calls can disagree.
# Tests used:
# [1] = target: Androgen receptor (Homo sapiens) (UniProt P10275); assay: ATG_AR_TRANS: Attagene TRANS-FACTORIAL HepG2 Assay for human Androgen Receptor (AR) (AID 2282973); conditions: HepG2 Attagene TRANS-FACTORIAL AR reporter transcription
# Method in brief: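 Transfected HepG2, 24 h treatment, chimeric NR-Gal4 driving GAL4-UAS reporters. mRNA induction by RT-PCR/capillary electrophoresis fluorescence; DMSO as negative control and baseline.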
# [2] = target: Androgen Receptor/SRC-1 Co-activator, AR (gene 367) (UniProt P10275); assay: OT_AR_ARSRC1_0480: Odyssey Thera (OT) 8-hour HEK293T Protein-Complementation Assay for Androgen Receptor/SRC-1 Co-activator (AID 2283354);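 further: hits raise the complementation signal above DMSO so AC50 marks enhancers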
# Method: OT_AR_ARSRC1_0480 is a cell-based, single-readout assay that uses HEK293T, a human kidney cell line, with measurements taken at 8 hours after chemical dosing in a 384-well plate.OT_AR_ARSRC1_0480 is one of one assay component(s) measured or calculated from the OT_AR_ARSRC1_0480 assay. It is designed to make measurements of protein fragment complementation, a form of binding reporter, as detected with fluorescence intensity signals by Protein-fragment Complementation technology.Data from the assay component OT_AR_ARSRC1_0480 was analyzed into 1 assay endpoint. This assay endpoint, OT_AR_ARSRC1_0480, was analyzed in the positive analysis fitting direction relative to DMSO as the negative control and baseline of activity. […] Furthermore, this assay endpoint can be referred to as a primary readout, because the performed assay has only produced 1 assay endpoint. […]
# Protein-fragment complementation assay, or PCA, is a method for the identification and quantification of protein-protein interactions. […] Interaction between the bait and the prey proteins brings the fragments of the reporter protein in close proximity to allow them to form a functional reporter protein whose activity can be measured. The OT AR / SRC-1 assay assessed androgen receptor chemical interactions using a rapidly maturing, intensely fluorescent mutant of YFP known as Venus, rationally dissected into two separate fragments. […]
# [3] = target: rat Androgen Receptor (AR), Ar (gene 24208) (UniProt P15207); assay: NVS_NR_rAR: NovaScreen (NVS) Nuclear Receptor Binding Assay for rat Androgen Receptor (AR) (AID 2283366)
# Sequence of UniProt P15207 (P15207 whole entry, looked up): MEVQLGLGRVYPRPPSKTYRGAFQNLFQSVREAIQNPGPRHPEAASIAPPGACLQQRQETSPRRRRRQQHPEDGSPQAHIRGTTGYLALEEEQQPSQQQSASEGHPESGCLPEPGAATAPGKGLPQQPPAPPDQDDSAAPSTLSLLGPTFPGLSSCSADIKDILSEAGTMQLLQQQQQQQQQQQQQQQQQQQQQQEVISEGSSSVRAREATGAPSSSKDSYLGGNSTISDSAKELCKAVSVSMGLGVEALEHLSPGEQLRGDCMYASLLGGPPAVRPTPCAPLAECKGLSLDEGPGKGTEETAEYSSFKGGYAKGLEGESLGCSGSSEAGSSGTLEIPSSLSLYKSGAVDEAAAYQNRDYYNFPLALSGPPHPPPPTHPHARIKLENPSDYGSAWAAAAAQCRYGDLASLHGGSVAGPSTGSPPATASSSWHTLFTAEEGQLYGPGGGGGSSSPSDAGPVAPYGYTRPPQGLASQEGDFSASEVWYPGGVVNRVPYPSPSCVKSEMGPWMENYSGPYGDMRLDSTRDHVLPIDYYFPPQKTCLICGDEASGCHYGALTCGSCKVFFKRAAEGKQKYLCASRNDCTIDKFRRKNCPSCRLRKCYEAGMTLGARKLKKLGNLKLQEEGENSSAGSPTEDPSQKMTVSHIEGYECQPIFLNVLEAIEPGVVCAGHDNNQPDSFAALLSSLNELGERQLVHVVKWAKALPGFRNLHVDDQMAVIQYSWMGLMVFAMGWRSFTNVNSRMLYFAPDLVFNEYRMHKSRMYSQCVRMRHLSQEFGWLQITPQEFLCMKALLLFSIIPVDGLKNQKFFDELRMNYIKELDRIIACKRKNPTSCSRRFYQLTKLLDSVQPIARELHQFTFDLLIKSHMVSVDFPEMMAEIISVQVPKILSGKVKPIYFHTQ
# Method in brief: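 Actives from a duplicate single-concentration (25 uM) primary run went on to concentration series. Displacement of radioligand was counted by filtration and scintillation, 18 h post-dose, using prostate extracts from testosterone-pretreated rats, with DMSO as baseline.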
# [4] = target: Estrogen receptor beta (Homo sapiens) (UniProt Q92731); assay: OT_ER_ERbERb_1440: Odyssey Thera (OT) 24-hour HEK293T Protein-Complementation Assay for Estrogen Receptor-beta/-beta Homodimer (AID 2283380);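 further: scored as signal increase over DMSO baseline for both agonists and antagonists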
# Sequence of UniProt Q92731 (Q92731 whole entry, looked up, the tested form may be a part): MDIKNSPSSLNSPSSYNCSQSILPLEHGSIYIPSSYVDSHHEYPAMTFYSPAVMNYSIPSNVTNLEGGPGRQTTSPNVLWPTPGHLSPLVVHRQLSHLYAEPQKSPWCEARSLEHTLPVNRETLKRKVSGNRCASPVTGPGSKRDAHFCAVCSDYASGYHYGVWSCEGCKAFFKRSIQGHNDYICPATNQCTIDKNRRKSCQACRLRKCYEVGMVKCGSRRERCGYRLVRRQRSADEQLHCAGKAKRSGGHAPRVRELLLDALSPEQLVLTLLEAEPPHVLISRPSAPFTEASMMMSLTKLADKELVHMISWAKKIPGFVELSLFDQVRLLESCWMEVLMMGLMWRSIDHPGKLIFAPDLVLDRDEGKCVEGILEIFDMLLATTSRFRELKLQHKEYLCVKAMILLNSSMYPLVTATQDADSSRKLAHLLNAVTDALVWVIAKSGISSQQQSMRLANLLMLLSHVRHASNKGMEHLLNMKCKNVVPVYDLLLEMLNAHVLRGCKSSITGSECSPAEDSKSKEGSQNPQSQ
# Method in brief: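 HEK293T cells stably expressing ER beta LBD (aa 310-547) homodimer fragment-complementation reporter, dosed 24 h. Cells formaldehyde-fixed, Draq5-stained; gain in nuclear (agonist) or nuclear plus cytoplasmic (antagonist) fluorescence versus DMSO read by laser scanning cytometry.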
smiles,measurement,setting,value
C[C@]12C=CC3=C4CCC(=O)C=C4CC[C@H]3[C@@H]1CC[C@@H]2O,AC50,[1],"active: 9.14, 11.3, 60, 55.8, 227 nM [separate samples]"
same,AC50,[2],"active: 1.08, 0.554, 30, 29.9, 185 nM [separate samples]"
same,AC50,[3],"active: 11, 21.7, 2.29, 13.4, 24 nM [separate samples]"
same,AC50,[4],"active: 151 nM, 17.7 µM, 16.4 µM, 16.2 µM [separate samples]"
